# Measurements: the supplement of paper PMC3334620
# Over roughly 33,000 sequences, “E-score (-0.5 to 0.5)” has its median near -0.013; the highest 2% begin near 0.3. The list shows a part of the results.
# Target: T1, Msn1 (UniProt P22148)
# T1 sequence: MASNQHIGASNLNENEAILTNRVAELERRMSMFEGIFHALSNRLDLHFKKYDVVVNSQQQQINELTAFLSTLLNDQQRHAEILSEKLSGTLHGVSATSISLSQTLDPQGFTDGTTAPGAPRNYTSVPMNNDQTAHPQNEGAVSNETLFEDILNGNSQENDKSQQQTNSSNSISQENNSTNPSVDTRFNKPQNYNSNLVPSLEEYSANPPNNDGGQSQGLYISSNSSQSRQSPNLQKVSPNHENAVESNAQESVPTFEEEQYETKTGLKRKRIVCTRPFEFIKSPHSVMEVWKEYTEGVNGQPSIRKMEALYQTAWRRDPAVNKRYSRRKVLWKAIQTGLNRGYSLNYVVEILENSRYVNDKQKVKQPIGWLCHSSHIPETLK
# Assay: PBM E-score (8-mer binding enrichment) (E-score (-0.5 to 0.5)); higher = stronger / more preferred TF binding; most listed sequences are background and not binding sites
# Settings: protein concentration: 200 nM; construct: GST-full length
# Outline: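 PURExpress in vitro transcription/translation supplied GST-tagged yeast transcription factors, either full-length or DNA-binding domain. Applied at about 100-200 nM to universal all-10-mer Agilent arrays double-stranded by primer extension, the bound protein was detected with fluorescent anti-GST. E-scores, modified Wilcoxon-Mann-Whitney statistics, were given by the Universal PBM Analysis Suite to ungapped eight-base words pooled with their reverse complements after masliner normalisation.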
row,Sequence,PBM E-score
1,AGACGGCG,0.01
2,CTCATGAC,0.148
3,AGGCGTGG,-0.275
4,AACCAGTC,-0.0509
5,CCAAGCAG,-0.122
6,AACTAGCG,0.00753
7,AATCTGTG,-0.181
8,GGATCTAA,-0.0482
9,CGCTTACG,-0.274
10,ATTACGTG,-0.0695
11,ACACTCCA,-0.072
12,GAGGGATA,-0.165
13,CTAACCCC,-0.363
14,GGATCGTA,-0.0722
15,GTCGGCTA,0.056
16,CTATCAGC,0.0472
17,CCATTGAA,0.0256
18,AAGGCGAT,-0.0895
19,CTGGGCGA,-0.159
20,ATCGCGAA,0.198
21,GCCTCACA,-0.0461
22,ATCGACCG,0.0828
23,CGAGTTGC,0.0501
24,CGAGAAGA,-0.205
25,CGAAATCA,0.232

row,Sequence,PBM E-score
1,ACTGTTAT,0.0872
2,AAGTAACT,0.0297
3,ATCTGCAT,-0.0358
4,ACAAACGA,0.331
5,CCAGCCGG,-0.117
6,TCAGTGGA,-0.104
7,TCAAAAAA,0.192
8,AGTGATAG,-0.00506
9,TGCACGAA,0.0944
10,ATGAGTGA,0.12
11,AGGTAAGC,-0.0845
12,TCAACCCA,0.0465
13,CAGAAGTA,0.104
14,CTCGGCTC,-0.0214
15,GCAGCCAA,0.00179
16,CATGGGGC,-0.163
17,CACTGAGG,-0.232
18,ATTCTGAC,0.0721
19,CCAGAATC,-0.0285
20,GCTCTAAC,-0.158
21,TGTAGTAA,0.166
22,AATTGAAA,0.098
23,CATCATTC,-0.0311
24,ATGTGAAG,0.0467
25,GATAATCA,0.0779

row,Sequence,PBM E-score
1,ACAGTCAG,0.0633
2,ACAATTAA,0.266
3,CACCAACC,-0.171
4,AGAAGCGA,0.135
5,CAATCAGA,-0.112
6,CACACTGG,-0.259
7,CGTGTCGC,0.202
8,GAGCCATA,-0.0161
9,AAACCATA,0.0394
10,AAGAGCAC,-0.0794
11,CCACGCGA,-0.00597
12,GAGCTAGC,0.0321
13,AAGATGAG,-0.079
14,GATAGTGA,0.0164
15,CCAAGGGG,-0.117
16,CTCGCTAC,-0.183
17,ATAACAGG,-0.136
18,CGTTAACA,0.128
19,CGGGAGTC,-0.107
20,AATAACGT,0.147
21,AACACTTA,-0.00275
22,GCGAAAAC,0.08
23,CATGGATA,-0.183
24,ACTTGGTA,-0.0483
25,ATACAGTG,0.068

row,Sequence,PBM E-score
1,GGGGTACC,-0.335
2,CTGGGGAC,-0.152
3,AGTTATTC,0.0278
4,GTCGTGCA,0.0447
5,AAAGACTG,-0.176
6,AAGCCTTA,-0.139
7,AGTGGTTA,-0.104
8,AGGGTAGG,-0.212
9,CCATACGC,0.0172
10,GCGGCGAA,0.00043
11,GGGCTTAA,-0.178
12,TAGTAGAA,0.1
13,ATTGTAGA,0.0176
14,CAACTGGC,-0.0109
15,CCTCCACC,-0.365
16,ACGATCAA,0.00072
17,GCTGACCC,-0.216
18,GAGATCGA,0.0169
19,ACGGAGCA,-0.0424
20,ACTTTACT,0.139
21,GGTAGAGA,-0.104
22,AAATCGCG,0.106
23,TCTACTAA,0.114
24,CAATACCA,0.248
25,TGCGCGAA,0.0766

row,Sequence,PBM E-score
1,TCCATCGA,-0.0334
2,GATTCGAC,0.108
3,ATGGATCC,0.171
4,TCGGAAGA,0.149
5,ATGGGGTA,0.00897
6,CGAGGACG,0.0859
7,GTACCAAA,0.259
8,GGGTTGTA,0.00666
9,GGCTCTTA,-0.034
10,AACCTCAA,0.0396
11,CATATGCG,-0.00554
12,GTCCGGTA,0.106
13,ATTTACCG,0.121
14,CGTATTTC,0.075
15,GTCGAGTA,-0.0563
16,AACGCGAA,0.0718
17,GTTAGACA,0.33
18,AGTGAGTA,0.159
19,ACGCCGCC,-0.445
20,AATCCGGA,0.297
21,AATGCGTG,0.0114
22,CGCCTCAA,-0.0298
23,CACTTTTA,0.0114
24,CGTGTGTA,0.141
25,ATAACTAT,0.138

row,Sequence,PBM E-score
1,TACTAATA,0.0704
2,GGCATGAC,-0.192
3,GCGCGCAC,0.0728
4,CGGTGACG,-0.014
5,CTCATCTC,-0.0641
6,CCAGCGGC,-0.0286
7,CTAGTAGC,-0.165
8,GCCCAGAA,0.0114
9,CCTTAGCG,-0.0361
10,ATTGAAGC,0.0586
11,CCAACACA,0.173
12,TATTTGAA,0.123
13,AATCGCAT,0.00728
14,AAGGTCTA,-0.106
15,ACTCATAC,0.0542
16,CTTAGACA,0.232
17,ACTACGAG,-0.195
18,CCGCTGAA,0.0328
19,CCTGCTCA,0.0773
20,GCCTTGAC,-0.0138
21,AAGTAACA,0.129
22,AAAAAGGT,0.0779
23,AATAGAAC,0.0222
24,GCGTTGAA,0.144
25,CCGCGCCA,-0.195

row,Sequence,PBM E-score
1,CAGTTGAC,0.102
2,ACACCGTC,0.0288
3,AGCGCCCG,-0.161
4,CTAGTAGA,0.0356
5,CTTGGGAA,0.0403
6,CACGGCCC,-0.134
7,CCTAACCC,-0.339
8,GTCAGGAC,0.316
9,AACTAGAA,0.062
10,ACGATGCT,-0.16
11,GATGTCCC,0.462
12,ATTTTCGA,0.111
13,GCCTTAGC,-0.0625
14,GTGGTCTA,-0.126
15,AAGATTAG,0.0791
16,AAACTCCC,-0.119
17,ATATGGAC,0.356
18,CCCATTCC,-0.377
19,CTTCAACC,0.0211
20,GCAGGCCC,-0.191
21,GGGAGTAC,-0.149
22,ATCCATAC,0.0973
